Among the data in ChEMBL document CHEMBL1157539, “Thousands of chemical starting points for antimalarial lead identification” (Nature, 2010) are IFI values, retold here.

The full ranking holds about 13,000 compounds; the median of “IFI” is about 4, and the highest 2% start at about 17. The list shows a part of the results.

A short description of this assay: GSK_TCMDC: Inhibition Frequency Index (IFI). The number of non-kinase HTS assays where a compound showed > 50 % inhibition, expressed as a percentage of the number of such assays in which the compound was tested (-0 is zero). The assay is classed as functional.
In turn, `C[C@H](NC(=O)C1CCCC1)C(=O)Nc1ccc(-c2ccc(-c3nc4cc(C(F)(F)F)ccc4[nH]3)cc2)cc1` showed an IFI of 1.8%.
The result for `O=C(Nc1ccc(CCNCc2ccccc2)cc1)Nc1ccc(OC(F)(F)F)cc1` reads 0.72%; that for `COc1ccc2nccc([C@@H](O)CN3CCC(NCCOc4cccc(C(F)(F)F)c4)CC3)c2c1`, 2.19%.
The compound `Cc1cc(OCCCN2CCC(NS(=O)(=O)c3cc(Br)c(Cl)s3)CC2)c2ccccc2n1` gave an IFI of 5.17%.
With `N#Cc1ccc(CN2CCC(Oc3ccc(NC(=O)c4cccs4)cc3Cl)CC2)cc1` the figure was 13.4%; with `CC(C)CCNCC(O)Cn1c2ccc(Cl)cc2c2cc(Cl)ccc21` (configuration not stated), 14.5%; with `NS(=O)(=O)CCc1cccc(Nc2nccc(-c3c(-c4cccc(NC(=O)c5c(F)cccc5F)c4)nn4ccccc34)n2)c1`, 7.87%.
Compound `Cc1c(Cc2ccccc2Br)cnc2nc(N)nc(N)c12` had an IFI of 3.55%.
The result for `CCc1nnc2sc(-c3cccc(NC(=O)c4ccc(OC)c(Cl)c4)c3)nn12` reads 3.51%.
`CCNc1cc(C(=O)N[C@@H](Cc2ccccc2Cl)[C@H](O)CNC(C)CCCC(C)C)cc(N2CCCCS2(=O)=O)c1` (some centres not stated) yielded an IFI of 6.43%.
In turn, `CC(=O)Nc1cccc(-c2cnc(N)c3cc(-c4ccc5c(c4)OCO5)ccc23)c1` showed an IFI of 13.3%.
The result for `NC(CC1CC(=O)N1CC(=O)O)C(=O)O` (configuration not stated) reads 1.43%; that for `O=C(Nc1ccc2c(c1)CN(Cc1ccc(N3CCCC3)o1)CCC2)c1cncs1`, -0%.
With `CSc1nc2nc(C)c(Cc3cccc(F)c3)c(C)n2n1` the figure was 0.65%; with `COc1ccc2c(O)c(Br)c(C)nc2c1`, -0%.
With `CN(c1ccc2c(c1)nc(Nc1cc(C(C)(C)C)on1)n2C)c1ccnc(Nc2ccc(CS(C)(=O)=O)cc2)n1`, the IFI is 9.4%.
With `CCN(CC)CCOc1ccc(C(O)(C#CC(O)(c2ccc(C)cc2)c2ccc(OCCN(CC)CC)cc2)c2ccc(C)cc2)cc1` (configuration not stated) the figure was 8.09%; with `Cc1cc(C(=O)Nc2ccc3c(c2)CCN3C2CCN(Cc3cccc4cc[nH]c34)C2)no1` (configuration not stated), 6.25%; with `CCNc1cc(C(=O)N[C@@H](Cc2ccccc2)[C@H](O)CNC(C)(C)CC(C)(C)C)c(F)c(N2CCCCS2(=O)=O)c1`, 0.74%.
With `CCCNC(=O)C1Cc2c([nH]c3ccc(Br)cc23)C2(CCN(CCc3ccccc3)CC2)N1` (configuration not stated) the figure was 8.82%; with `Cc1cc(N(C)C)nc(Nc2ccc(NC(=O)C(C)Oc3ccccc3)cc2)n1` (configuration not stated), 3.92%; with `COc1ccc(CNCc2ccc(-c3cccc(-c4nc5cc(F)ccc5[nH]4)c3)cc2)cc1`, 7.55%.
The result for `COc1ccc(CCc2ccc(-c3c(C)[nH]c(C)c(Cl)c3=O)cc2)cc1OC` reads -0%; that for `COc1ccc2nccc([C@@H](O)CN3CCC(NC(=O)c4ccc(-c5ccc(C#N)cc5)cc4)CC3)c2c1`, 7.48%.
In the case of `c1cc(-c2ccc(CN3CCCC3)cc2)cc(-c2nc3ccccc3[nH]2)c1`, the IFI was determined as 1.35%.
With `C=CCN(C(=O)c1ccc(Cl)c([N+](=O)[O-])c1)c1nc(-c2ccccc2)cs1`, the IFI turned out to be 3.39%.
`CCNc1cc(C(=O)N[C@@H](Cc2ccccc2)[C@H](O)CNC23CC4CC(CC(C4)C2)C3)cc(N2CCCCS2(=O)=O)c1` had an IFI of 0.75%.
The result for `CC(CN(C)C)C(=O)Nc1cccc(-c2cccc(-c3nc4cc(F)ccc4[nH]3)c2)c1` (configuration not stated) reads 5.41%.
`NCCCCNc1cc(-c2ccnc(Nc3cccc(Cl)c3)n2)ccn1` returned an IFI of 13%.
As to `Cc1cc(N)c2cc(NC(=O)c3ccc4ccccc4c3)ccc2n1`, the IFI is 6.08%.
Turning to `CN(C)CCCn1cncc1-c1ccc2ncnc(Nc3ccc4c(cnn4Cc4ccccc4)c3)c2c1`, the IFI is 0.75%.
With `COc1cccc2cc(C(=O)N[C@@H](CC(C)C)C(=O)N[C@H](/C=N/NC(=O)Cc3cccnc3)CCc3ccccc3)oc12` the figure was 5.36%.
`Cc1cc(F)ccc1-c1nc(NCCCNCCc2ccccc2)nc2c1ccc(=O)n2-c1c(F)cccc1F` came in with an IFI of 7.81%.
Compound `CC1(C)N=C(N)N=C(N)N1OCc1cccc2c1ccc1ccccc12` returned an IFI of 4.93%.
Compound `CC(=O)N(C)c1ccc(C(=O)Nc2cccc(-c3cccc(-c4nc5cc(C(F)(F)F)ccc5[nH]4)c3)c2)cc1` showed an IFI of 7.89%.
`COc1c(OC)c(OC)c2ccccc2c1CNCCCCCCNCc1c(OC)c(OC)c(OC)c2ccccc12` gave an IFI of 14.8%.
In the case of `O=S(=O)(NCCN1CCCC1)c1ccc(-c2ccc(CNCc3ccc(F)cc3)cc2)s1`, the IFI came to 11.7%.
`CCn1ncc2c(N3CCCC3=O)cc(C(=O)N[C@@H](Cc3ccccc3)[C@H](O)CNC(C)(C)c3cccc(OC)c3)cc21` displayed an IFI of 1.46%.
The result for `CCCCC1(NC(=O)[C@@H](Nc2ccc(C#N)c3ccccc23)C2CCCCC2)CCCCC1` reads 0.96%; that for `CC1CCC(C(C)C)C(OC(=O)CSc2nnc3c(n2)[nH]c2ccccc23)C1` (configuration not stated), 0%; that for `CCCN1CCN(Cc2ccc(C(=O)Nc3ccc(Cl)cc3)cc2)CC1`, 4.8%.
The result for `COC(=O)C(Cc1ccccc1)NC(=O)NC1CCN(c2ccnc(Nc3ccc(F)cc3)n2)C1` (configuration not stated) reads 3.08%; that for `Cc1cc(NC(=O)NC(=N)N)ccc1Cl`, 2.88%; that for `O=C(Cn1c(SCc2cccc(F)c2F)cc(=O)c2ccccc21)N(CCCn1ccnc1)Cc1ccc(-c2ccc(C(F)(F)F)cc2)cc1`, 2.17%.
The compound `O=c1cc(NCCCNCc2cc(C(F)(F)F)ccc2Cl)[nH]c2ccccc12` displayed an IFI of 0.72%.
With `COc1ccc2[nH]c(C(=O)Nc3ccc4[nH]c(-c5ccccc5)nc4c3)cc2c1` the figure was 7.69%; with `CCOc1ccc(-c2nonc2NC(=O)c2ccccc2OC)cc1OCC`, 2.99%; with `COc1ccc(C2NCCc3c2[nH]c2ccccc32)cc1CN1CCN(c2ccc(F)cc2)CC1` (configuration not stated), 10%.
`COc1ccc2ccccc2c1CNCC1CCN(CC2CCCCC2)CC1` had an IFI of 5.88%.
The result for `O=S(=O)(NCCN1CCCC1)c1ccc(-c2ccc(CNC3Cc4ccccc4C3)cc2)cc1` reads 7.69%; that for `O=C(Nc1ccc(OC2CCN(CC3CC3)CC2)c(Cl)c1)c1ccc2ncccc2c1`, 3.08%; that for `CCCN1CCC=C(c2cccc(Nc3nccc(Nc4cc(OC)ccc4C)n3)c2)C1`, 5.04%.
`CCCC1N=C(N)N=C(N)N1c1ccc(C)cc1` (configuration not stated): the IFI was -0%.
The result for `CC(C)c1ccc(NC(=O)c2cccc(CN3CCCN(CC4CCCCC4)CC3)c2)cc1` reads 14.7%; that for `Cc1cc(=NN=Cc2ccccn2)c2cc(F)ccc2[nH]1`, 2.99%; that for `Cc1ccc(NC(=O)c2cccc(CN3CCCN(Cc4cccc(O)c4)CC3)c2)cc1F`, 4.23%.
Regarding `CC(CN1CCN(C)CC1)C(=O)Nc1cccc(-c2ccc(-c3nc4ccccc4[nH]3)s2)c1` (configuration not stated), the IFI was found to be 1.85%.
